Laboratory results from the supplement of paper PMC5499739.
In all, about 16,000 sequences were measured (“Z-score”: median about -0.37, highest 2% from about 3.1 on). The list shows a part of the results.

test system: RBM10 RRM1-ZnF-RRM2 (GST-tagged construct); assay: RNAcompete 7-mer binding Z-score; higher = stronger binding preference
Description: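 RNAcompete: 20 pmol GST-tagged RBM10 RNA-binding constructs were incubated with a designed RNA pool of about 241,000 sequences up to 41 nt (1.5 nmol) on glutathione beads for 30 min at 4 °C and washed. Bound RNAs were identified by microarray hybridisation. Each RNA 7-mer is scored by a one-sided Z-score of its enrichment, computed over probes that contain the 7-mer within longer pool sequences.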

Sequence	RNAcompete 7-mer binding Z-score
GCAAGAU	-0.114
UACCCUG	-0.621
ACCAUAU	-0.748
ACUUGGU	-0.267
GCGUGGA	2.22
GCUGUAA	-0.453
GGGAUUA	2.72
GACAUGG	2.7
AUCGUAC	-0.435
UCGGUGA	0.479
CACAAUC	-0.799
AAGGGCU	1.39
AACAUCG	-0.355
AUAAACG	-0.136
GGGAUGU	2.88
CAAAGUG	0.366
CCCUCUC	-0.759
CAGCGGA	1.16
GAGGUUU	0.785
CGGCGAG	1.46
AGACAUA	-0.0561
AUUUUCC	-0.806
GGAUAUC	0.833
CGUCACA	-0.286
GGUACGC	0.902

Sequence	RNAcompete 7-mer binding Z-score
ACUGGGG	1.58
CAGUCAU	-0.723
UAGUACU	-0.278
UAGCAAU	-0.078
CUCGAUU	-0.839
GCAUCCA	-0.519
UCUUCGG	-0.657
GCUUUUG	-0.679
GCGUCUC	-0.661
AAGGUGU	2.26
GGCAUCG	0.487
UCGGAGC	0.0641
AGUGAAC	0.505
AUUUCGG	-0.256
UAGGACC	0.636
AGCCGAU	-0.5
GUAAUUG	0.29
AUCCGUC	-0.752
GGGUCUA	0.519
CGGCAGA	0.421
CGGCGAC	0.17
AAUGAAC	-0.231
GUUGUUU	-0.158
AUGCGGA	0.898
ACAUGAU	-0.282

Sequence	RNAcompete 7-mer binding Z-score
AGAUCAG	0.406
GACAAGA	0.253
UAACCUA	-0.734
AGAUGUA	0.213
ACUGAAU	-0.493
GCUAUUA	-0.435
AUUCACA	-0.683
GGAAUAA	1.23
AACUGAU	-0.384
AGUUGGA	1.85
GCAUGUC	-0.464
UAUCCUA	-0.821
UCCGAGC	-0.795
AGCUUGU	-0.803
CUCUGUA	-0.763
CAUGCAC	-0.595
CGAUUUG	-0.639
GUCAUGU	-0.103
AGAGACG	0.33
GUCCGGA	0.122
UGUAUCC	-0.562
GCUACUA	-0.555
CAGGCAC	0.151
CAAUAAG	-0.0161
GACCCCG	-0.686

Sequence	RNAcompete 7-mer binding Z-score
GUCCACG	-0.271
AAUCUGC	-0.916
GUGAAUC	0.283
GUUUUUU	-0.428
UCUGACU	-0.734
CCUGUCA	-0.81
UUGUCCU	-0.828
GGCAAUU	0.425
GUUGCCG	-0.216
CGACCCU	-0.635
GGCCACA	-0.0889
UAGGCUC	-0.289
UCUCCAC	-0.806
UGGAAUG	1.95
UAACAGG	1.14
AUGGUGG	3.33
AACAAAU	-0.227
GCGCCAC	-0.533
GAAACUU	-0.657
CGCAAUU	-0.679
GUUAAAA	0.0131
CCUGAGG	-0.00877
CGUGUCG	-0.286
UCGGAGA	0.723
UUACUUA	-0.839

Sequence	RNAcompete 7-mer binding Z-score
CAGCGUC	-0.508
CCAUGCC	-0.704
CUCAGCA	-0.606
UCAGAGC	-0.246
CGCGAGC	-0.42
AAGAGGA	1.99
AUAGUUG	0.111
UCCGCCG	-0.839
GAUGGUG	2.77
ACACUAA	-0.402
CCGUAUC	-0.876
UUUCUCC	-0.825
CAUACAA	-0.271
AAGUCAU	-0.497
ACCGUCG	-0.628
CAUUUCC	-0.89
CUUCCCA	-0.817
ACAUGCU	-0.602
UCGGCUU	-0.679
CUAUAUG	-0.526
GAACGAA	0.359
UCCUGCA	-0.686
AAUACAA	-0.267
UGUAAGC	-0.216
UUAAACC	-0.639

Sequence	RNAcompete 7-mer binding Z-score
CGAUGGA	1.31
ACAGUCU	-0.792
UCCAUGA	-0.402
GGUCGUU	0.403
ACUGGUC	-0.398
UAUGCAU	-0.26
UCCCUGA	-0.788
CGACUUU	-0.832
ACGUGAA	-0.0525
GAUUCAC	-0.479
GACGUGA	0.421
CUCCAUA	-0.755
GUGUCAG	0.366
AUUUCGU	-0.632
UUUGUGU	-0.362
CCUGGGG	0.618
GCGGGCA	2.22
GAGCGGA	3.55
UAACACU	-0.621
GCAGAUU	-0.125
AUGUAGC	0.0277
CCGUCUA	-0.752
CUGGGCC	-0.176
CACCGGG	0.654
CGUUACA	-0.307

Sequence	RNAcompete 7-mer binding Z-score
CUUGGGU	0.763
UAAUGAA	-0.133
AGUGGUG	2.24
CACUGGG	1.31
ACCGGCA	-0.133
UUUCUCA	-0.788
AAAAGUU	-0.3
UGAGAGC	0.457
GACCAUU	-0.766
CCGCCUC	-0.792
UUUAACC	-0.77
GUCAUGC	-0.453
UAUUGGU	0.516
AUAUAUG	0.0349
CACACUA	-0.581
CACAGUC	-0.453
UGCAUGA	-0.165
CUCCAUC	-0.839
GGAUUGG	3.28
GUAUCGC	-0.125
AAAUAGA	0.359
ACGCGCG	-0.176
AGGGAGA	2.67
GCUGAGC	0.0277
GUACUGC	-0.205

Sequence	RNAcompete 7-mer binding Z-score
CAUCUUU	-0.868
CCUAUGC	-0.788
AAAGGGA	4.13
AGGCCGA	-0.027
CGCACCU	-0.635
AUGCAAC	-0.133
CGUCAGC	-0.555
UGUCACA	-0.588
AAUCAGG	1.32
UAAACAU	-0.508
GCGUUAC	0.00944
UGCUGGG	1.16
GGCAUAU	0.468
ACCUCUG	-0.814
CUAUUGG	-0.428
AAUAAAA	-0.409
CGCUCGA	-0.621
CAACAUC	-0.493
CUGGUCC	-0.515
CGGUCUA	-0.49
UCGCACC	-0.726
GGGUCAA	1.82
CGCCCCG	-0.61
AGAGUCC	-0.533
UGGUUUA	0.574

Sequence	RNAcompete 7-mer binding Z-score
GCACGGC	0.184
UCUUCUA	-0.781
UGGGCCG	1.11
UAAGGGG	3.11
GACCCAA	-0.788
UGUAAUU	-0.526
CGCUUCA	-0.697
AUUACUA	-0.522
AAGGCGA	2.56
AAAUGGA	3.34
GCUGAUU	-0.391
ACCUGUU	-1.07
GCUUUCA	-0.759
GCGUCUU	-0.581
UAACAGA	0.0896
GAGUAGA	1.4
GUGGUGG	3.78
AACGGUC	-0.0415
AUAAGUC	-0.402
AGCAUAA	-0.202
GGAGUAA	1.3
UUUCGUA	-0.599
UGUCCUG	-0.686
UGCACUG	-0.154
UCCUAGG	-0.264

Sequence	RNAcompete 7-mer binding Z-score
AGUGAGC	0.731
AGGCUAA	0.202
GCUCCUA	-0.879
AUUGCCA	-0.766
GACUAGU	-0.227
UACACCA	-0.449
CAAAAGC	-0.369
CUUCCGA	-0.836
GCCCUAG	-0.511
GUAGCUC	-0.267
ACAGGCU	0.392
CCCUUCA	-0.868
GGAUACU	0.672
UGGCAGC	0.803
AGCCGCA	-0.42
CAUGUGU	-0.151
CGGCGCU	-0.435
ACACCUU	-0.814
ACCGGAC	-0.235
AAGCACC	-0.566
CGAAUGG	1.4
AUAUAGU	-0.235
CUCGCAG	-0.333
UAACGGU	0.45
AGCUUCG	-0.795

Sequence	RNAcompete 7-mer binding Z-score
UGUUAUA	-0.486
AUCACAU	-0.522
CCAAUAG	-0.0816
ACUCGUA	-0.606
GGGGUUG	3.23
CUUAGGC	-0.428
UAAGGAU	1.55
GACUUGG	0.385
AUGGCUC	-0.453
UAAAUCU	-0.744
GGAGUGG	4.61
GCCUAGC	-0.803
AAGAGUC	-0.027
AAUUGUC	-0.701
AGAUUCC	-0.741
AAUCACC	-0.464
UCGUGAC	-0.541
AAUCAGC	-0.482
CAAGUUU	-0.77
AUGUUUU	-0.624
GUCCAAA	-0.424
CCAUAAA	-0.657
GGCACAG	1.15
GAAUAAC	-0.151
UAAUUGA	-0.395

Sequence	RNAcompete 7-mer binding Z-score
UCAAAGU	-0.395
CUGCUAG	-0.766
CAGCGUA	-0.158
CACGGGC	0.541
CGGUGAC	0.308
AAGUACG	0.0786
CUGUCUA	-0.857
ACGCGAA	-0.249
UUUUUGA	-0.479
UUAGAUG	0.0677
AGGAAUG	2.07
UAAAAUA	-0.482
UCGGUUU	-0.318
AUGCUAC	-0.555
GGCUCGC	-0.307
AGAUACG	0.221
GUUUGCA	-0.318
GACUACC	-0.741
CCUGACA	-0.712
UACACUU	-0.522
UAACAAA	-0.238
CCUUGAU	-0.781
UGAGCUG	0.337
GGAGGGC	3.27
UCGGUGG	1.56

Sequence	RNAcompete 7-mer binding Z-score
UUACCUU	-0.843
CCGGUUA	-0.369
GAUGAAA	1.16
ACCCCCC	-0.329
AUGCCAA	-0.5
GAAAGCG	0.858
CAGGGCG	2.41
AAUUUAG	-0.205
UAUAAAG	0.0386
ACUAGGC	-0.235
AGACUGA	-0.49
UCAUAGA	-0.449
GAGGUUA	1.77
AAAUCAA	-0.195
UCGACGG	0.243
UCUUGCU	-0.876
GGGUCAG	2.73
UUGUUAU	-0.581
GCGACGC	-0.253
GGCCAGG	1.32
UAGCUUU	-0.719
GACUGCU	-0.887
CCCGCUA	-0.832
GGAAGGU	3.94
GUGGUCU	0.264

Sequence	RNAcompete 7-mer binding Z-score
AGGUUCG	0.545
GCGACUC	-0.533
CCAUUAG	-0.42
ACACGUA	-0.187
CGUCCCU	-0.759
UCAAGUA	-0.409
AAAUUGU	-0.293
ACGAAUC	-0.497
UUACUUC	-0.643
CCGAGGA	0.563
CUAUUUU	-1.05
CGAGACC	-0.413
CUAUUCC	-0.89
UCGUACC	-0.581
AACCGAA	-0.439
UUUUACC	-0.876
UAGUUCU	-0.817
GUGAGGG	4
UUGGCAU	-0.187
CAGUAUU	-0.537
GGAGCCG	0.836
UGACUUC	-0.755
GAACCUC	-0.883
UUGUGUG	0.0604
AAACUAA	-0.508

Sequence	RNAcompete 7-mer binding Z-score
CGAGGAG	1.67
GAGGGUC	1.39
CUAUAUU	-0.825
UAACGGG	2.01
ACUAUUG	-0.606
UUCGAUA	-0.635
GGUUACC	0.632
GCAGCAU	-0.253
AACUACG	-0.42
AAUAACU	-0.446
GCCGGGG	1.4
CCUAAAC	-0.865
GUACUAU	-0.0962
AGAGCUC	-0.85
GCGAAAG	0.803
UCCCAGC	-0.643
UCGAACU	-0.694
